{
  "source": "the antibiotic and cytotoxicity screens of Wong et al. (2023)",
  "key": {"[1]": {"tested_on": "HSkMC (human skeletal muscle cells)", "experiment": "cytotoxicity call (relative viability < 0.9)", "settings": "10 µM"}, "[2]": {"tested_on": "HepG2", "experiment": "cytotoxicity call (relative viability < 0.9)", "settings": "10 µM"}, "[3]": {"tested_on": "S. aureus RN4220", "experiment": "growth inhibition call (relative growth <= 0.2)", "settings": "50 µM"}},
  "note": "This is one part of the list.",
  "data": [
    {"smiles": "CO[C@H]1/C=C\\O[C@@]2(C)Oc3c(C)c(O)c4c(c3C2=O)[C@]2(C=C(NC(=O)/C(C)=C\\C=C/[C@@H](C)[C@@H](O)[C@@H](C)[C@@H](O)[C@@H](C)[C@@H](OC(C)=O)[C@@H]1C)C4=O)OCC(=O)O2", "values": [
      {"measurement": "cytotoxicity call", "setting": "[1]", "result": "active"},
      {"measurement": "cytotoxicity call", "setting": "[2]", "result": "inactive"},
      {"measurement": "growth inhibition call", "setting": "[3]", "result": "active"}
    ]},
    {"smiles": "Nc1ncnc(NCCN2CCOCC2)c1[N+](=O)[O-]", "values": [
      {"measurement": "cytotoxicity call", "setting": "[1]", "result": "inactive"},
      {"measurement": "cytotoxicity call", "setting": "[2]", "result": "inactive"},
      {"measurement": "growth inhibition call", "setting": "[3]", "result": "inactive"}
    ]},
    {"smiles": "Cn1cc(N)cn1", "values": [
      {"measurement": "cytotoxicity call", "setting": "[1]", "result": "inactive"},
      {"measurement": "cytotoxicity call", "setting": "[2]", "result": "inactive"},
      {"measurement": "growth inhibition call", "setting": "[3]", "result": "inactive"}
    ]},
    {"smiles": "C[C@@H]1CN([C@H](C)CO)C(=O)Cc2cc(NC(=O)CCC(F)(F)F)ccc2O[C@@H]1CN(C)S(=O)(=O)c1cccs1", "values": [
      {"measurement": "cytotoxicity call", "setting": "[1]", "result": "inactive"},
      {"measurement": "cytotoxicity call", "setting": "[2]", "result": "inactive"},
      {"measurement": "growth inhibition call", "setting": "[3]", "result": "inactive"}
    ]},
    {"smiles": "CC(C)NC(=O)N(C)C[C@@H]1Oc2c(NC(=O)NC3CCCCC3)cccc2C(=O)N([C@@H](C)CO)C[C@@H]1C", "values": [
      {"measurement": "cytotoxicity call", "setting": "[1]", "result": "inactive"},
      {"measurement": "cytotoxicity call", "setting": "[2]", "result": "inactive"},
      {"measurement": "growth inhibition call", "setting": "[3]", "result": "inactive"}
    ]},
    {"smiles": "O=C(C[C@@H]1CC[C@@H](NS(=O)(=O)c2ccc(F)cc2)[C@@H](CO)O1)N1CCC(Cc2ccccc2)CC1", "values": [
      {"measurement": "cytotoxicity call", "setting": "[1]", "result": "inactive"},
      {"measurement": "cytotoxicity call", "setting": "[2]", "result": "inactive"},
      {"measurement": "growth inhibition call", "setting": "[3]", "result": "inactive"}
    ]},
    {"smiles": "COc1ccccc1-c1ccc2c(c1)O[C@@H](CN(C)S(=O)(=O)c1ccccc1)[C@@H](C)CN([C@H](C)CO)S2(=O)=O", "values": [
      {"measurement": "cytotoxicity call", "setting": "[1]", "result": "inactive"},
      {"measurement": "cytotoxicity call", "setting": "[2]", "result": "inactive"},
      {"measurement": "growth inhibition call", "setting": "[3]", "result": "inactive"}
    ]},
    {"smiles": "Cc1ccc(S(=O)(=O)N(C)C[C@@H]2Oc3ccc(NC(=O)NC(C)C)cc3C(=O)N([C@H](C)CO)C[C@@H]2C)cc1", "values": [
      {"measurement": "cytotoxicity call", "setting": "[1]", "result": "inactive"},
      {"measurement": "cytotoxicity call", "setting": "[2]", "result": "inactive"},
      {"measurement": "growth inhibition call", "setting": "[3]", "result": "inactive"}
    ]},
    {"smiles": "CCCCc1ccc(CC(=O)O)cc1", "values": [
      {"measurement": "cytotoxicity call", "setting": "[1]", "result": "inactive"},
      {"measurement": "cytotoxicity call", "setting": "[2]", "result": "active"},
      {"measurement": "growth inhibition call", "setting": "[3]", "result": "inactive"}
    ]},
    {"smiles": "COc1ccc(NC(=O)N(C)C[C@@H]2OCCCC[C@H](C)Oc3ccc(NC(=O)Nc4cccc5ccccc45)cc3C(=O)N([C@@H](C)CO)C[C@H]2C)cc1", "values": [
      {"measurement": "cytotoxicity call", "setting": "[1]", "result": "inactive"},
      {"measurement": "cytotoxicity call", "setting": "[2]", "result": "inactive"},
      {"measurement": "growth inhibition call", "setting": "[3]", "result": "inactive"}
    ]}
  ]
}
